From the GPR68 mutational scans of Howard et al. (2025) come the findings set out here.

To fix the notation:
B1: GPR68, Q15743 (parent)
chain: MGNITADNSSMSCTIDHTIHQTLAPVVYVTVLVVGFPANCLSLYFGYLQIKARNELGVYLCNLTVADLFYICSLPFWLQYVLQHDNWSHGDLSCQVCGILLYENIYISVGFLCCISVDRYLAVAHPFRFHQFRTLKAAVGVSVVIWAKELLTSIYFLMHEEVIEDENQHRVCFEHYPIQAWQRAINYYRFLVGFLFPICLLLASYQGILRAVRRSHGTQKSRKDQIQRLVLSTVVIFLACFLPYHVLLLVRSVWEASCDFAKGVFNAYHFSLLLTSFNCVADPVLYCFVSETTHRDLARLRGACLAFLTCSRTGRAREAYPLGAPEASGKSGAQGEEPELLTKLHPAFQTPNSPGSGGFPTGRLA

The least precise scores are not listed. Not listed are two conditions whose scores span a narrow range. In variant names, del marks residues removed and ins residues inserted between the two positions. For some assays here: How much ogerin was present is not stated here.

In data set [1] the parent is B1. Briefly: cAMP reporter score (Enrich2 score, wild type = 0); higher = more signal; HEK293T, FACS bins.
In data set [2] the parent is B1. Briefly: surface expression score (Enrich2 score, wild type = 0); higher = more signal; HEK293T, FACS bins.

For the variant S221C, the cAMP reporter score was 0.546 in data set [1] (pH 5.5); 0.117 in data set [1] (pH 6); 0.52 in data set [1] (pH 6, modulator: ogerin); 0.981 in data set [1] (pH 6.5, modulator: ogerin). In addition, the surface expression score in data set [2] is 0.803.

As for S221W, the cAMP reporter score in data set [1] (pH 5.5) is 1.48; in data set [1] (pH 6), -0.178; in data set [1] (pH 6, modulator: ogerin), 0.382; in data set [1] (pH 6.5, modulator: ogerin) it was 0.848. In data set [2], the surface expression score was -0.195.

In the case of R222_K223insGS, the cAMP reporter score in data set [1] (pH 5.5) is -1.33; in data set [1] (pH 6) it was -0.78; in data set [1] (pH 6, modulator: ogerin), -1.5; in data set [1] (pH 6.5, modulator: ogerin) it was -0.948. Besides, the surface expression score in data set [2] amounted to 0.795.

For I208_L209insGS, the cAMP reporter score was -0.835 in data set [1] (pH 5.5); -1.22 in data set [1] (pH 6); -1.1 in data set [1] (pH 6, modulator: ogerin); -1.09 in data set [1] (pH 6.5, modulator: ogerin). Moreover, the surface expression score in data set [2] is -1.96.

For R210_A211insGS, the cAMP reporter score in data set [1] (pH 5.5) is -0.206; in data set [1] (pH 6), -0.847; in data set [1] (pH 6, modulator: ogerin), -2.3; in data set [1] (pH 6.5, modulator: ogerin), -0.824. Moreover, the surface expression score in data set [2] is -1.01.

As for R213_R214insGSG, the cAMP reporter score in data set [1] (pH 5.5) is -0.93; in data set [1] (pH 6), -1.42; in data set [1] (pH 6, modulator: ogerin) it was -1.7; in data set [1] (pH 6.5, modulator: ogerin) it was -1.39. Besides, the surface expression score in data set [2] stood at 1.08.

On to I208_R210del, for which the cAMP reporter score was -1.21 in data set [1] (pH 5.5); -0.644 in data set [1] (pH 6); -1.31 in data set [1] (pH 6, modulator: ogerin); -0.717 in data set [1] (pH 6.5, modulator: ogerin). The surface expression score in data set [2] is -1.73.

Turning to G207_I208insGSG, the cAMP reporter score in data set [1] (pH 5.5) was -1.99; in data set [1] (pH 6), -0.166; in data set [1] (pH 6, modulator: ogerin) it was -1.95; in data set [1] (pH 6.5, modulator: ogerin), -1.32. The surface expression score in data set [2] was -2.38.

Consider K223_D224insG, for which the cAMP reporter score in data set [1] (pH 5.5) was -1.46; in data set [1] (pH 6), -1.7; in data set [1] (pH 6, modulator: ogerin), -1.98; in data set [1] (pH 6.5, modulator: ogerin), -1.12. Besides, the surface expression score in data set [2] is -0.417.

A203_S204insG: the cAMP reporter score in data set [1] (pH 5.5) is -0.973; in data set [1] (pH 6, modulator: ogerin), -1.89; in data set [1] (pH 6.5, modulator: ogerin) it was -0.845. The surface expression score in data set [2] is -2.77.

For the variant P197_C199del, the cAMP reporter score in data set [1] (pH 5.5) is -1.02; in data set [1] (pH 6), -1.53; in data set [1] (pH 6, modulator: ogerin), -1.88; in data set [1] (pH 6.5, modulator: ogerin), -1.55. In addition, in data set [2], the surface expression score was -2.24.

Turning to R222_K223insGSG, the cAMP reporter score in data set [1] (pH 5.5) was -1.47; in data set [1] (pH 6) it was -1.11; in data set [1] (pH 6, modulator: ogerin), -1.7; in data set [1] (pH 6.5, modulator: ogerin), -1.75. In addition, the surface expression score in data set [2] worked out at 0.635.

As to L200_L201insG, the cAMP reporter score in data set [1] (pH 5.5) is -2; in data set [1] (pH 6, modulator: ogerin) it was -0.121. In addition, the surface expression score in data set [2] is -4.29.

In the case of Q219_K220insGS, the cAMP reporter score in data set [1] (pH 5.5) was -1.51; in data set [1] (pH 6) it was -1.24; in data set [1] (pH 6, modulator: ogerin), -1.5; in data set [1] (pH 6.5, modulator: ogerin), -0.882. Further, the surface expression score in data set [2] came out at 0.863.

Take A211_R213del: the cAMP reporter score in data set [1] (pH 5.5) was -1.75; in data set [1] (pH 6) it was -0.944; in data set [1] (pH 6, modulator: ogerin), -1.88; in data set [1] (pH 6.5, modulator: ogerin) it was -1.44. The surface expression score in data set [2] was -1.05.

For the variant I198_C199insGSG, the cAMP reporter score was -0.748 in data set [1] (pH 5.5) and -0.779 in data set [1] (pH 6). The surface expression score in data set [2] is -1.89.

Take Q225_I226insGSG: the cAMP reporter score in data set [1] (pH 5.5) was -1.5; in data set [1] (pH 6) it was -1.64; in data set [1] (pH 6, modulator: ogerin) it was -2.34; in data set [1] (pH 6.5, modulator: ogerin), -1.06. Moreover, the surface expression score in data set [2] is -0.857.

Take F196del: the cAMP reporter score in data set [1] (pH 5.5) was -1.17; in data set [1] (pH 6), -0.913; in data set [1] (pH 6, modulator: ogerin), -2.85; in data set [1] (pH 6.5, modulator: ogerin), -1. The surface expression score in data set [2] is -2.16.

Consider I208_L209insGSG, for which the cAMP reporter score is -2.06 in data set [1] (pH 5.5); -1.1 in data set [1] (pH 6); -1 in data set [1] (pH 6, modulator: ogerin); -1.26 in data set [1] (pH 6.5, modulator: ogerin).

On to L200_L201insGS, for which the cAMP reporter score in data set [1] (pH 5.5) is -1.57; in data set [1] (pH 6) it was -1.56; in data set [1] (pH 6.5, modulator: ogerin) it was -1.3.

As for H216del, the cAMP reporter score in data set [1] (pH 5.5) was -0.666; in data set [1] (pH 6) it was -0.1; in data set [1] (pH 6, modulator: ogerin) it was -0.803; in data set [1] (pH 6.5, modulator: ogerin), -2.02. In addition, the surface expression score in data set [2] was 0.091.

As to I208A, the cAMP reporter score is -0.527 in data set [1] (pH 5.5); -1.05 in data set [1] (pH 6); -1.08 in data set [1] (pH 6, modulator: ogerin); -0.744 in data set [1] (pH 6.5, modulator: ogerin). Moreover, in data set [2], the surface expression score is -1.32.

As for I208Y, the cAMP reporter score in data set [1] (pH 5.5) is -0.484; in data set [1] (pH 6), -1.04; in data set [1] (pH 6.5, modulator: ogerin), -0.539. The surface expression score in data set [2] is -0.717.

As to I208P, the cAMP reporter score is -1.99 in data set [1] (pH 5.5); -1.12 in data set [1] (pH 6); -0.949 in data set [1] (pH 6, modulator: ogerin); -1.48 in data set [1] (pH 6.5, modulator: ogerin).

I208H: the cAMP reporter score in data set [1] (pH 5.5) was -2.17; in data set [1] (pH 6, modulator: ogerin), -1.22; in data set [1] (pH 6.5, modulator: ogerin), -0.442.

Take I208K: the cAMP reporter score in data set [1] (pH 5.5) is -1.34; in data set [1] (pH 6), -0.146; in data set [1] (pH 6, modulator: ogerin), -0.79; in data set [1] (pH 6.5, modulator: ogerin), -0.891. Further, the surface expression score in data set [2] was -3.3.

Turning to I208S, the cAMP reporter score in data set [1] (pH 5.5) was -0.526; in data set [1] (pH 6), -1.37; in data set [1] (pH 6, modulator: ogerin) it was -0.971; in data set [1] (pH 6.5, modulator: ogerin), -0.391. Besides, the surface expression score in data set [2] was -1.

Take I208R: the cAMP reporter score in data set [1] (pH 5.5) was -1.64; in data set [1] (pH 6) it was -1.11; in data set [1] (pH 6, modulator: ogerin), -2.53; in data set [1] (pH 6.5, modulator: ogerin), -1.09. Moreover, the surface expression score in data set [2] was -2.18.

On to I208D, for which the cAMP reporter score in data set [1] (pH 5.5) was -0.829; in data set [1] (pH 6), -0.966; in data set [1] (pH 6, modulator: ogerin), -2.05. In addition, the surface expression score in data set [2] was -3.07.

I208G: the cAMP reporter score in data set [1] (pH 5.5) was -1.44; in data set [1] (pH 6.5, modulator: ogerin), -1.16. In addition, the surface expression score in data set [2] is -2.41.

Regarding I208F, the cAMP reporter score in data set [1] (pH 5.5) was -2; in data set [1] (pH 6), -0.518; in data set [1] (pH 6, modulator: ogerin), -0.914; in data set [1] (pH 6.5, modulator: ogerin), -0.334. The surface expression score in data set [2] was -1.27.

On to I208Q, for which the cAMP reporter score in data set [1] (pH 5.5) was -1.08; in data set [1] (pH 6), -0.976; in data set [1] (pH 6, modulator: ogerin), -1.63; in data set [1] (pH 6.5, modulator: ogerin) it was -1.13. Further, in data set [2], the surface expression score is -2.05.

Regarding I208T, the cAMP reporter score in data set [1] (pH 5.5) is -0.25; in data set [1] (pH 6), -0.563; in data set [1] (pH 6, modulator: ogerin), -0.291. Also, the surface expression score in data set [2] was -0.38.
